Among all 39,000 compounds or so, about 220 (0.56%) showed activity. The list shows a part of the results.
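Further: static incubation at 37 °C against the wild-type strain, values averaged over two biological replicates.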

This assay deals with Escherichia coli K-12 BW25113. In words: relative growth (OD600 normalised to plate interquartile mean) (fraction); higher = less growth inhibition, active = 0.2 or less. Particulars: 50 µM; LB; incubation time: overnight (16-24 h).
As to `O=C1OCC=C[C@H]2O[C@@]34C=CCN(CCN5CCOCC5)C(=O)[C@H]3N(CCCCCCO)C(=O)[C@@H]4[C@@H]12`, the relative growth was inactive: 0.986.
The value for `Cc1noc(C)c1NC(=O)N(C)C[C@H]1Oc2ncc(C#CCN(C)C)cc2C(=O)N([C@H](C)CO)C[C@H]1C` was inactive: 1.01; that for `CO[C@@H]1CN(C)C(=O)c2cc(NC(=O)NC3CCCCC3)ccc2OC[C@@H](C)N(CCc2ccccc2)C[C@@H]1C` was inactive: 1.02.
The same measure for `Cc1noc(C)c1NC(=O)Nc1cccc2c1O[C@@H](CN(C)C(=O)Nc1cccc3ccccc13)[C@@H](C)CN([C@@H](C)CO)C2=O`: inactive: 0.99.
In the case of `CO[C@@H]1CN(C)C(=O)c2ccc(NC(=O)Nc3ccc(Cl)cc3)cc2OC[C@@H](C)N(C(=O)Nc2c(C)noc2C)C[C@@H]1C`, the relative growth is inactive: 0.972.
On to `COc1ccccc1CNC(=O)C[C@@H]1C[C@@H]2c3cc(NC(=O)NC4CCCC4)ccc3O[C@@H]2[C@@H](CO)O1`, for which the relative growth is inactive: 0.998.
The same measure for `C[C@H]1CCCCO[C@H](CN(C)S(=O)(=O)c2ccc(F)cc2)[C@@H](C)CN([C@@H](C)CO)C(=O)c2cc(NC(=O)Nc3ccc(F)cc3)ccc2O1`: inactive: 0.97; for `Cc1ccc(-c2cnc3c(c2)C(=O)N([C@@H](C)CO)C[C@@H](C)[C@@H](CN(C)C(=O)Cc2ccncc2)O3)cc1`: inactive: 1.01; for `C[C@H](CO)N1C[C@H](C)[C@H](CN(C)Cc2ccc(Cl)c(Cl)c2)Oc2ccc(NS(=O)(=O)c3ccccc3)cc2CC1=O`: inactive: 1.
The value for `COc1ccc(S(=O)(=O)N(C)C[C@@H]2Oc3ccc(NS(=O)(=O)c4cccs4)cc3CC(=O)N([C@@H](C)CO)C[C@@H]2C)cc1` was inactive: 0.985; that for `CC12CCC(=O)C=C1CCC1C2C(O)CC2(C)C1CCC2(O)C(=O)COP(=O)([O-])[O-].CC[NH+](CC)CC.CC[NH+](CC)CC` (centres undefined) was inactive: 1.1.
The same measure for `N[C@@H](CCO)c1cccc(Cl)c1`: inactive: 1.01; for `Cc1ccc(S(=O)(=O)Nc2ccc3c(c2)C(=O)N([C@@H](C)CO)C[C@@H](C)[C@H](CN(C)C(=O)c2ccccc2)OCCCC[C@@H](C)O3)cc1`: inactive: 1.01; for `COc1ccccc1C#Cc1ccc2c(c1)O[C@@H](CN(C)C(C)=O)[C@@H](C)CN([C@H](C)CO)S2(=O)=O`: inactive: 1.
In the case of `Cc1ccc(S(=O)(=O)N(C)C[C@H]2Oc3c(NS(=O)(=O)c4ccc(F)cc4)cccc3C(=O)N([C@H](C)CO)C[C@H]2C)cc1`, the relative growth is inactive: 0.999.
The same measure for `C[C@@H]1CN([C@H](C)CO)C(=O)c2cc(NC(=O)C3CC3)ccc2O[C@@H]1CN(C)S(=O)(=O)c1ccc(F)cc1`: inactive: 0.974.
On to `CC(C)c1cc(C(C)C)c(CC(=O)NS(=O)(=O)Oc2c(C(C)C)cccc2C(C)C)c(C(C)C)c1`, for which the relative growth is inactive: 0.738.
For the compound `COc1ccc(NC(=O)N(C)C[C@H]2OCCCC[C@@H](C)Oc3ccc(NC(=O)CCC(F)(F)F)cc3C(=O)N([C@H](C)CO)C[C@@H]2C)cc1`, the relative growth is inactive: 1.04.
The same measure for `C[C@@H]1CCCCO[C@@H](CN(C)C(=O)Cc2ccccc2)[C@@H](C)CN([C@@H](C)CO)C(=O)c2cc(NC(=O)CCC(F)(F)F)ccc2O1`: inactive: 0.993; for `C[C@@H]1CN([C@H](C)CO)C(=O)c2cccc(NC(=O)C3CCCCC3)c2O[C@@H]1CN(C)S(=O)(=O)c1cn(C)cn1`: inactive: 1.01.
With `COc1ccc(NC(=O)N(C)C[C@@H]2Oc3ncc(C#CC(C)C)cc3C(=O)N([C@H](C)CO)C[C@@H]2C)cc1`, the relative growth is inactive: 0.984.
With `C[C@H]1CN([C@@H](C)CO)C(=O)Cc2cc(NS(C)(=O)=O)ccc2O[C@H]1CN(C)S(=O)(=O)c1ccccc1`, the relative growth was inactive: 0.967.
The value for `COc1ccc(S(=O)(=O)N(C)C[C@H]2Oc3ccc(NC(=O)Nc4c(C)noc4C)cc3CC(=O)N([C@H](C)CO)C[C@@H]2C)cc1` was inactive: 0.991; that for `CCCCC(=O)OC1CCC2C3CCc4cc(O)ccc4C3CCC12C` (centres undefined) was inactive: 0.873; that for `C[C@H]1CCCCO[C@H](CN(C)C(=O)c2ccccc2)[C@@H](C)CN([C@@H](C)CO)C(=O)c2cc(NC(=O)Nc3ccccc3)ccc2O1` was inactive: 1.03.
The same measure for `CC(C)C#Cc1ccc2c(c1)O[C@H](CN(C)C(=O)Cc1ccccn1)[C@H](C)CN([C@@H](C)CO)S2(=O)=O`: inactive: 0.986; for `CC(C)NC(=O)N(C)C[C@H]1Oc2ccc(NC(=O)Cc3ccccc3)cc2C(=O)N([C@@H](C)CO)C[C@@H]1C`: inactive: 1.01; for `C[C@H](CO)N1C[C@H](C)[C@@H](CN(C)C(=O)Nc2ccc(C(F)(F)F)cc2)Oc2ccc(NC(=O)Cc3cn(C)c4ccccc34)cc2C1=O`: inactive: 0.978.
The same measure for `C[C@H](CO)N1C[C@H](C)[C@H](CN(C)CC2CCCCC2)OCCCC[C@H](C)Oc2ccc(NS(=O)(=O)c3ccc(Cl)cc3)cc2C1=O`: inactive: 0.973; for `C[C@@H]1CCCCO[C@H](CN(C)C(=O)C2CCCCC2)[C@H](C)CN([C@@H](C)CO)C(=O)c2cc(NC(=O)Nc3ccc(C(F)(F)F)cc3)ccc2O1`: inactive: 1.02.
Regarding `C[C@@H]1CN([C@@H](C)CO)C(=O)c2cc(NC(=O)Nc3ccc4c(c3)OCO4)ccc2O[C@@H](C)CCCCO[C@@H]1CN(C)Cc1ccc(C(F)(F)F)cc1`, the relative growth is inactive: 1.05.
The same measure for `CCOc1ccc(Cc2cc(C3OC(CO)C(O)C(O)C3O)ccc2Cl)cc1` (centres undefined): inactive: 0.906.
The same measure for `CO[C@@H]1CN(C)C(=O)c2cc(NS(C)(=O)=O)ccc2OC[C@@H](C)N(C(=O)C2CCOCC2)C[C@H]1C`: inactive: 1; for `Cc1noc(C)c1S(=O)(=O)Nc1ccc2c(c1)C(=O)N([C@@H](C)CO)C[C@@H](C)[C@@H](CN(C)Cc1ccc(C(F)(F)F)cc1)OCCCC[C@@H](C)O2`: inactive: 1.05.
The same measure for `C[C@H]1CCCCO[C@H](CN(C)Cc2ccc(C(F)(F)F)cc2)[C@@H](C)CN([C@@H](C)CO)C(=O)c2cc(NC(=O)Nc3ccc(F)cc3)ccc2O1`: inactive: 1.03.
Take `CO[C@@H]1CN(C)C(=O)c2cc(NS(=O)(=O)CC(F)(F)F)ccc2OC[C@@H](C)N(Cc2cccnc2)C[C@@H]1C`: the relative growth is inactive: 0.995.
In the case of `C[C@@H]1CCCCO[C@H](CN(C)CC2CCCCC2)[C@H](C)CN([C@H](C)CO)C(=O)c2cc(NC(=O)NC3CCCCC3)ccc2O1`, the relative growth was inactive: 0.99.
The value for `C[C@@H]1CCCCO[C@@H](CN(C)S(=O)(=O)c2ccccc2)[C@@H](C)CN([C@@H](C)CO)C(=O)c2cc(NC(=O)Nc3ccc(C(F)(F)F)cc3)ccc2O1` was inactive: 0.973; that for `COC(=O)/C=c1\sc2n(c1=O)CCN=2` was inactive: 1.02.
The value for `COc1ccc(CN2CCN(C(c3ccc(F)cc3)c3ccc(F)cc3)CC2)c(OC)c1OC.Cl` was inactive: 1; that for `COc1ccc(NC(=O)N(C)C[C@H]2OCc3cn(nn3)CCCC(=O)N([C@@H](C)CO)C[C@H]2C)c(OC)c1` was inactive: 1.01.
As to `COc1ccccc1NC(=O)N(C)C[C@@H]1Oc2cc(Br)ccc2S(=O)(=O)N([C@@H](C)CO)C[C@@H]1C`, the relative growth is inactive: 1.
The value for `C[C@H](CO)N1C[C@H](C)[C@H](CN(C)C(=O)Cc2ccccc2)Oc2cc(C#CC3(O)CCCC3)ccc2S1(=O)=O` was inactive: 0.985; that for `Cc1noc(C)c1S(=O)(=O)N(C)C[C@@H]1OCc2cnnn2CCCC(=O)N([C@@H](C)CO)C[C@H]1C` was inactive: 1.01.
The value for `CC(C)NC(=O)N(C)C[C@@H]1Oc2cc(C#Cc3ccccn3)ccc2S(=O)(=O)N([C@H](C)CO)C[C@@H]1C` was inactive: 0.991; that for `CC(=O)OC1(C(C)=O)CCC2C3C=C(Cl)C4=CC(=O)CCC4(C)C3CCC21C` (centres undefined) was inactive: 1.04.
Turning to `Cc1noc(C)c1NC(=O)N(C)C[C@H]1Oc2ncc(C#CCN(C)C)cc2C(=O)N([C@@H](C)CO)C[C@H]1C`, the relative growth is inactive: 1.02.
The value for `C[C@H]1CN([C@@H](C)CO)C(=O)Cc2cc(NC(=O)Nc3cccc4ccccc34)ccc2O[C@H]1CN(C)Cc1ccc(C(F)(F)F)cc1` was inactive: 1.03; that for `C[C@@H]1CN([C@H](C)CO)C(=O)Cc2cc(NS(=O)(=O)c3cn(C)cn3)ccc2O[C@H]1CN(C)S(=O)(=O)c1ccccc1` was inactive: 1.01.
The value for `C[C@@H]1CN([C@H](C)CO)C(=O)c2cc(-c3cccc(C(=O)N(C)C)c3)cnc2O[C@H]1CN(C)S(=O)(=O)c1ccc(F)cc1` was inactive: 1; that for `CCOc1ccc(NC2=NC(=O)/C(=C/c3cc(Br)c(OCc4ccccc4)c(OC)c3)S2)cc1` was inactive: 1.07; that for `C[C@H](CO)N1C[C@H](C)[C@H](CN(C)S(=O)(=O)c2ccc(F)cc2)Oc2ccc(N(C)C)cc2CC1=O` was inactive: 0.999.
The value for `COc1ccc(S(=O)(=O)N(C)C[C@@H]2Oc3c(cccc3N(C)C)C(=O)N([C@@H](C)CO)C[C@H]2C)cc1` was inactive: 0.985; that for `CNC[C@H]1Oc2ccc(NC(=O)Cn3cnnn3)cc2C(=O)N([C@H](C)CO)C[C@@H]1C` was inactive: 0.898; that for `C[C@@H]1CN([C@@H](C)CO)C(=O)c2cccc(NS(=O)(=O)c3cn(C)cn3)c2O[C@H]1CN(C)Cc1ccc2c(c1)OCO2` was inactive: 0.963.
Take `O=C(CCCCCCC(=O)Nc1ccc([C@H]2O[C@@H](CSc3nc(-c4ccccc4)c(-c4ccccc4)o3)C[C@H](c3ccc([N+](=O)[O-])cc3)O2)cc1)NO`: the relative growth was inactive: 1.02.
The value for `Cc1ncc(C[n+]2csc(CCO)c2C)c(N)n1.Cl.[Cl-]` was inactive: 1.1.
The same measure for `COc1cc(C(=O)N2CCC3(CC2)CC(=O)c2cc(-c4cncc(C(=O)O)c4)ccc2O3)cc2c1c(C)cn2C1CC1`: inactive: 1.01; for `Cc1noc(C)c1S(=O)(=O)N(C)C[C@@H]1Oc2ccc(NC(=O)NC(C)C)cc2CC(=O)N([C@H](C)CO)C[C@@H]1C`: inactive: 1.02.

Source of the values: the supplement of paper PMC9446081.
